# Laboratory results reported in PubChem BioAssay AID1645882 (National Center for Advancing Translational Sciences (NCATS), 2021).
# The whole screen tested about 16,000 compounds, of which about 120 (0.75%) were called active. Roughly 4% stayed inconclusive and do not appear here. The call rests on the fitted dose curve; in most records, active means well fitted inhibition curve with a large enough effect; inconclusive means small, poorly fitted or top-dose-only effect; inactive means no such curve, though single readings can be large or run the other way. Some of the results follow. Where a SMILES comes first, the peptide text is derived from it. [ ]: non-standard residue; d: D form. Met(O) = CS(=O)CC[C@H](N)C(=O)O; Phe(ol) = N[C@H](CO)Cc1ccccc1; Sar = CNCC(=O)O
# Target: Rap guanine nucleotide exchange factor 3 (Homo sapiens) (UniProt O95398)
# Experiment: Validation qHTS for antagonist of cAMP-regulated guanine nucleotide exchange factor 3 (EPAC1);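 further: plate controls were DMSO for no effect and ATA control for full effect; nearly all actives have a fitted effect of over 75% in size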
# Conditions: EPAC1 Rap1B-BODIPY-GDP exchange, fluorescence; series mostly up to 150 µM; activity change, negative = inhibition: at the top concentration
# In short: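 EPAC1 (100 nM) mixed with 250 nM RAP1B-BODIPY-GDP and 50 uM GDP; compounds in concentration series, 5 min at room temperature. Fluorescence (ex 480/em 540 nm) read every 5 min for 30 min; normalized to ATA control and DMSO.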
# Chain of UniProt O95398 (O95398 whole entry, looked up): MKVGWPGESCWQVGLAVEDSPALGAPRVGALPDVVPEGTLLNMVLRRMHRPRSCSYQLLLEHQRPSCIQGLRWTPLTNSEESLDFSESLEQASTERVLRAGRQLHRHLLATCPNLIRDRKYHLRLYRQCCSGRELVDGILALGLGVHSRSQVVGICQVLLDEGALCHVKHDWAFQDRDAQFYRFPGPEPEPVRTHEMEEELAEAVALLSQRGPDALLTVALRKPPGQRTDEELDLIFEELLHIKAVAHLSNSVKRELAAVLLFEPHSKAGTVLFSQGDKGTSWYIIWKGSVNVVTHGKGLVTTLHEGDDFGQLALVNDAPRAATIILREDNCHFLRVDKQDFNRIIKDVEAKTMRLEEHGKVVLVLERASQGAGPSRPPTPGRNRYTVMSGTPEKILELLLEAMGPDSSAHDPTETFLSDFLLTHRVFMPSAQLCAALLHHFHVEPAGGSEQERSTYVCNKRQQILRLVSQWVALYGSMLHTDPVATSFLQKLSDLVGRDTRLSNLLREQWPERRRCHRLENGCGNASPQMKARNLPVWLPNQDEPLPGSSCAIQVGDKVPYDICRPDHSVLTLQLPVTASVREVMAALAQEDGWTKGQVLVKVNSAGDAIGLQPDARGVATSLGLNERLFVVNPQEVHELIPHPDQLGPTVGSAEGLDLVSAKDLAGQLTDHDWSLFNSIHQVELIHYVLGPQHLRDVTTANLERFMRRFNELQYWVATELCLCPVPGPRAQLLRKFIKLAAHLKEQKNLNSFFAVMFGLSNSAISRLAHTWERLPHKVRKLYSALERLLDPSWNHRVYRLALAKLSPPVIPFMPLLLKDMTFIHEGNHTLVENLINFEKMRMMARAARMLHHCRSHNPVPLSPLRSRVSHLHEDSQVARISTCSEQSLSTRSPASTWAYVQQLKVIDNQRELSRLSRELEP
row,Structure (SMILES),"activity change, negative = inhibition"
1,CCOC(=O)c1cncn1[C@H](C)c1ccccc1,inactive: 2.31%
2,CNC(=O)Oc1cccc2ccccc12,inactive: 7.5%
3,CCOC(=O)c1cncn1C(C)c1ccccc1 (stereo unspecified),inactive: 15.7% [at 75.8 µM]
4,Cc1noc(C)c1C(=O)N1CCC2(CCCN(CC(C)C)C2)CC1,inactive: 17.6%
5,N[C@@H](CCP(=O)(O)O)C(=O)O,inactive: -4.79%
6,Cc1nc(-c2ccc(-c3ccc(C(=O)N4CCc5cc6c(cc54)C4(CCN(C)CC4)CO6)cc3)c(C)c2)no1,inactive: -5.95%
7,C[C@]12CCC3C(CC[C@H]4C[C@H](O)CC[C@]34C)[C@@H]1CC[C@@H]2C(=O)CO (stereo partly specified),inactive: 19.1%
8,CCOC(=O)C1(c2ccccc2)CCCN(C)CC1 (stereo unspecified),inactive: 17.5%
9,CC(Cc1ccccc1)NC=O (stereo unspecified),inactive: 8.76%
10,CN(CC(=O)N[C@H](CO)Cc1ccccc1)C(=O)[C@H](CCS(C)=O)NC(=O)[C@@H](N)Cc1ccc(O)cc1 (stereo partly specified) (H-Y[Met(O)][Sar][Phe(ol)]),inactive: 20.1% [at 15.3 µM]
11,O=CC=O,inactive: -2.87%
12,NC1C[C@H]1c1ccccc1 (stereo partly specified),inactive: -2.04%
13,CCCCCCC(C)OC(=O)COc1ccc(Cl)cc1Cl (stereo unspecified),inactive: 7.72%
14,CC(C)c1cccc(C(C)C)c1O,inactive
15,c1ccc(N2CCC3(CCNCC3)CC2)nc1,inactive: 13.1%
16,O=C(c1csnn1)N1CCC2(CC1)CN(Cc1ccncc1)C2,inactive: 7.56%
17,C[C@]1(C(=O)O)CCC[C@]2(C)c3cc(O)ccc3CC[C@@H]12,inactive: 10.1%
18,CCCCCCCCCCCCCCCCOC[C@@H](O)COP(=O)([O-])OCC[N+](C)(C)C,inactive: -0.837% [at 15.3 µM]
19,NC[C@H](CP(=O)(O)O)c1ccc(Cl)cc1,inactive: -2.72%
20,c1cnc(N2CCC3(CCNCC3)CC2)nc1,inactive: 24.7%
21,CCCCCCCCCOc1ccc2[nH]cc(CCN)c2c1,inactive
22,CC(=O)[C@H]1CCC2C3CC[C@H]4C[C@H](O)CC[C@]4(C)C3CC[C@@]21C (stereo partly specified),inactive: -5.68% [at 75.8 µM]

row,Structure (SMILES),"activity change, negative = inhibition"
1,Clc1ccc(COC(Cn2ccnc2)c2ccc(Cl)cc2Cl)cc1 (stereo unspecified),inactive: -19.9%
2,COc1ccc2c(c1OC)C(=O)OC2C1c2cc3c(cc2CCN1C)OCO3 (stereo unspecified),inactive
3,CCN(CC)/[N+]([O-])=N/O,inactive: 11.1%
4,c1ccc(C[C@@H](c2ccccc2)N2CCCCC2)cc1,inactive: 6.87%
5,Clc1ccc(C2(Cn3cncn3)OCCO2)c(Cl)c1,inactive: 18.3%
6,Cc1[nH]c2ccccc2c1CN(C)C,inactive: -13%
7,CCCCCCCCCC(=O)O[C@H]1CC[C@H]2[C@@H]3CCC4=CC(=O)CC[C@@H]4[C@H]3CC[C@]12C,inactive: -6.61%
8,O=C(NCNC(=O)NC1C(=O)NC(=O)N1CO)NC1C(=O)NC(=O)N1CO (stereo unspecified),inactive: 12.5%
9,CC(=O)O[C@H]1CC[C@@]2(C)C(=CC[C@@H]3[C@@H]2CC[C@]2(C)C(=O)CC[C@@H]32)C1,inactive: 6.3% [at 75.8 µM]
10,CC1CCC2C(C)C(=O)OC3OC4(C)CCC1C32OO4 (stereo unspecified),inactive: -2.77%
11,O=C1C2CC=CCC2C(=O)N1SC(Cl)(Cl)Cl (stereo unspecified),inactive: 27%
12,O=C(Oc1ccccc1)N1CCC2(CC1)CN(Cc1ccncc1)C2,inactive: 6.33%
13,N#CC(C#N)=Cc1cc(O)c(O)c(O)c1,inactive: -5.99%
14,CCCCCCCCCCCCCCCC[N+](C)(C)C,inactive: 10.8%
15,O=[N+]([O-])c1ccccc1,inactive: 8.55%
16,C[C@@H]1O[C@@H](O[C@H]2CC[C@]3(C=O)C4CC[C@]5(C)[C@@H](C6=CC(=O)OC6)CC[C@]5(O)[C@@H]4CC[C@]3(O)C2)[C@H](O)[C@H](O)[C@H]1O (stereo partly specified),inactive: 9.73%
17,CN1C[C@H](CNC(=O)OCc2ccccc2)C[C@@H]2c3cccc4c3c(cn4C)C[C@H]21,inactive
18,CC(C)(O)C1O[C@H]2CC[C@@]3(C)[C@@](O)(CC[C@H]4Cc5c([nH]c6ccccc56)[C@@]43C)C2=CC1=O (stereo partly specified),inactive
19,CCN1C[C@@]2(COC)C3[C@@H](OC)C4[C@@H]1C3([C@@H]1C[C@]3(O)[C@H](OC(=O)c5ccccc5)[C@@H]1[C@]4(OC(C)=O)[C@@H](O)[C@@H]3OC)[C@H](OC)C[C@H]2O,inactive: 1.02% [at 75.8 µM]
20,CN1C2CCC1CC(OC(c1ccc(F)cc1)c1ccc(F)cc1)C2 (stereo unspecified),inactive: 31.2%
21,O=C(O)CC[N+](=O)[O-],inactive
22,O=C1NCN(c2ccccc2)C12CCN(CCCOc1ccc(F)cc1)CC2,inactive

row,Structure (SMILES),"activity change, negative = inhibition"
1,Oc1ccc2c3c1O[C@H]1[C@@H](O)CC[C@@]4(O)[C@@H](C2)N(CC2CCC2)CC[C@]314,inactive: 6.08%
2,c1ccc([C@H]2CNCc3ccccc32)cc1,inactive: 15.9%
3,C/C=C/c1ccc2c(c1)OCO2,inactive
4,OCc1cnc[nH]1,inactive: -5.91% [at 75.8 µM]
5,C[C@@H]1O[C@@H](O[C@H]2C[C@@H](O)[C@]3(CO)[C@@H]4C(CC[C@]3(O)C2)[C@@]2(O)CC[C@H]([C@@H]3COC(=O)C3)[C@@]2(C)C[C@H]4O)[C@H](O)[C@H](O)[C@H]1O (stereo partly specified),inactive: 7.04% [at 75.8 µM]
6,Clc1ccccc1-c1cncnc1NCCc1cnc[nH]1,inactive: -0.347%
7,CCCN(C/C=C\I)[C@@H]1CCc2ccc(O)cc2C1,inactive: 4.22%
8,CC[C@@]1(O)CC(O)c2c(cc3c(c2O)C(=O)c2c(O)ccc(O)c2C3=O)C1C(=O)OC (stereo partly specified),inactive: 25.5%
9,N#CC(O[C@@H]1OC(COC2OC(CO)C(O)C(O)[C@@H]2O)C(O)C(O)C1O)c1ccccc1 (stereo partly specified),inactive: 16.1%
10,CC1(C)C(O)CC(O)[C@]2(C)C1CC(=O)[C@]1(C)C2CC[C@@]2(C)C(c3ccoc3)OC(=O)C3OC321 (stereo partly specified),inactive: -10%
11,COc1ccc2c(c1OC)CN1CCc3cc4c(cc3C1C2)OCO4 (stereo unspecified),inactive: 6.74% [at 75.8 µM]
12,CCCC(C)(COC(N)=O)COC(=O)NC1CC1 (stereo unspecified),inactive: 10.8%
13,O=C(Oc1ccccc1)N1CCC[C@@]2(CCN(C(c3ccccc3)c3ccccc3)C2)C1,inactive: 14.8%
14,C[CH2][Hg][S]c1ccccc1C(=O)O,inactive: -17.2%
15,O=C1CC2OCC=C3CN4CC[C@@]56c7ccccc7N1C5C2C3CC46 (stereo partly specified),inactive: 17.4%
16,CCN(CC)C(=O)N[C@H]1C[C@@H]2c3cccc4[nH]cc(c34)C[C@H]2N(C)C1,inactive: 1.44%
17,COP(=S)(OC)Oc1ccc(S(=O)(=O)N(C)C)cc1,inactive: 10.4%
18,O=c1ccc2cc(OC3OC(CO)C(O)C(O)C3O)c(O)cc2o1 (stereo unspecified),inactive: 4.95%
19,CC(=O)N1CC[N+](C)(C)CC1,inactive
20,COc1ccc2c(c1)[C@@]13CCCC[C@H]1[C@@H](C2)NCC3,inactive: -2.15% [at 75.8 µM]
21,CC[C@@H](CO)NC(=O)[C@@H]1C=C2c3cccc4c3c(cn4C)C[C@H]2N(C)C1,inactive
22,COc1ccc(NC(=O)N2CC[C@@]3(CCCN(C(=O)Oc4ccccc4)C3)C2)cc1,inactive: 14.5%
